The RNAGym collection of RNA variant scans (doi:10.1093/nar/gkz1192)
The source gives no read counts; variants with many changes may rest on few reads.

B1: CPEB3 Ribozyme (parent)
chain: UAACAGGGGGCCACAGCAGAAGCGUUCACGUCGCAGCCCCUGUCAGAUUCUGGUGAAUCUGCGAAUUCUGCUGUAUAUCUC

Variants of: B1
Assay: self-cleavage, relative activity (ratio to wild type); higher = more cleavage; in vitro, sequencing
Procedure, shortened: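 Barcoded CPEB3 ribozyme mutants, produced by rounds of error-prone PCR, self-cleaved while being transcribed with T7 RNA polymerase for 5 hours at 37°C and during a subsequent 15 min DNase I step before EDTA was added. Sequencing of template-switched cDNA on Illumina gave cleaved and total reads, and DNA sequencing assigned barcodes to variants. Each variant's relative activity is its cleaved/total read fraction divided by the unmutated ribozyme's fraction, averaged across three batches. A variant needed a minimum of 5 reads.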
Variant A5G U49C U69C U72A has a self-cleavage of 0.07.
In the case of A5G U49C U78A, the self-cleavage is reported as 0.36.
Variant A5G U49C U78C has a self-cleavage of 0.17.
A5G U51A A65G showed a self-cleavage of 0.38.
A5G U51A G52A gave a self-cleavage of 0.49.
With A5G U51A G73A the self-cleavage was 1.1.
A5G U51A U54G U58C A75G gave a self-cleavage of 0.08.
Work on A5G U51A U72C yielded a self-cleavage of 0.72.
Variant A5G U51C A56U U80G has a self-cleavage of 0.38.
A5G U51C G52A U58C U72A gave a self-cleavage of 0.21.
Work on A5G U51C U60C U78C yielded a self-cleavage of 0.24.
Work on A5G U51C U69C yielded a self-cleavage of 0.47.
A5G U51C U74G gave a self-cleavage of 1.02.
In the case of A5G U51C U76A, the self-cleavage is reported as 0.64.
Variant A5G U51C U78C has a self-cleavage of 0.64.
Work on A5G U51G U60C yielded a self-cleavage of 0.47.
A5G U54A A56U U78C showed a self-cleavage of 0.5.
Work on A5G U54A A57G U67A yielded a self-cleavage of 0.42.
In the case of A5G U54A C81U, the self-cleavage is reported as 0.45.
With A5G U54A U58A the self-cleavage was 0.09.
A5G U54A U78C gave a self-cleavage of 0.87.
For A5G U54C A57G U74C, the self-cleavage was 0.17.
Work on A5G U54C A64G U78A yielded a self-cleavage of 0.81.
Variant A5G U54C U60C has a self-cleavage of 0.34.
For A5G U54C U60C U69C, the self-cleavage was 0.09.
A5G U54C U80C gave a self-cleavage of 0.89.
A5G U58A G70U showed a self-cleavage of 0.11.
In the case of A5G U58A U60C, the self-cleavage is reported as 0.26.
A5G U58C A64U showed a self-cleavage of 0.21.
Work on A5G U58C U66C U72A yielded a self-cleavage of 0.25.
Variant A5G U60A U67C U72A has a self-cleavage of 0.08.
Work on A5G U60A U78C yielded a self-cleavage of 0.19.
A5G U66C U67C showed a self-cleavage of 0.27.
Work on A5G U66C U74A U80C yielded a self-cleavage of 0.25.
In the case of A5G U66G U78C, the self-cleavage is reported as 0.29.
Work on A5G U67C A75G yielded a self-cleavage of 0.55.
With A5G U67C U80A the self-cleavage was 0.22.
A5G U67C U80C showed a self-cleavage of 0.17.
For A5G U69A U72A, the self-cleavage was 0.39.
Work on A5G U69C A77G yielded a self-cleavage of 0.54.
Work on A5G U69C U80G yielded a self-cleavage of 0.43.
Variant A5G U69G U72C has a self-cleavage of 0.36.
A5G U72A A75U U78C gave a self-cleavage of 0.87.
A5G U72A A77G showed a self-cleavage of 0.63.
Variant A5G U72C A75G U78A has a self-cleavage of 1.09.
A5G U72C G73A gave a self-cleavage of 1.27.
In the case of A5G U74C A75G, the self-cleavage is reported as 1.09.
In the case of A5G U76A A77G, the self-cleavage is reported as 0.61.
In the case of A5G U76C U80C, the self-cleavage is reported as 0.68.
Work on A5G U78G C79A yielded a self-cleavage of 1.06.
Variant A5G U78G C79U has a self-cleavage of 0.67.
Work on A5U A13C C23U A45G U54C U76A yielded a self-cleavage of 0.17.
Work on A5U A13C C40A U60A U74C yielded a self-cleavage of 0.45.
In the case of A5U A13C U25C A28G A56U U78C, the self-cleavage is reported as 0.19.
Variant A5U A13C U25C A35G has a self-cleavage of 0.23.
Work on A5U A13C U26C C34G yielded a self-cleavage of 0.48.
With A5U A13C U48C U51A U72A C81U the self-cleavage was 0.13.
A5U A13C U69C U80C gave a self-cleavage of 0.72.
For A5U A13G A15G A35U U69G, the self-cleavage was 0.07.
A5U A13G A15U G33A A47G A64U gave a self-cleavage of 0.
Variant A5U A13G A18G C27A G55A U67C U80C has a self-cleavage of 0.08.
With A5U A13G A18G U26A U49A U74C U78C the self-cleavage was 0.16.
In the case of A5U A13G A18G U41A, the self-cleavage is reported as 0.09.
Work on A5U A13G A18U A56G U67A G73C yielded a self-cleavage of 0.18.
For A5U A13G A20G U26A A35U, the self-cleavage was 0.36.
A5U A13G A20U U69G U74A gave a self-cleavage of 0.09.
Variant A5U A13G A21G has a self-cleavage of 0.76.
With A5U A13G A21G U41C the self-cleavage was 0.6.
A5U A13G A28G gave a self-cleavage of 0.55.
Variant A5U A13G A28G U31A U51A U58C U72A has a self-cleavage of 0.07.
A5U A13G A28U C32G C79A gave a self-cleavage of 0.12.
With A5U A13G A35C A56G U78G C81U the self-cleavage was 0.56.
For A5U A13G A35U U54A A64U A75G, the self-cleavage was 0.13.
Work on A5U A13G A45G U48A A56G U80A yielded a self-cleavage of 0.29.
A5U A13G A57G U76C C81G gave a self-cleavage of 0.93.
Work on A5U A13G A57G U78C yielded a self-cleavage of 0.6.
In the case of A5U A13G C14U U41C, the self-cleavage is reported as 1.04.
A5U A13G C27U A35U A65U U72C U74C gave a self-cleavage of 0.09.
With A5U A13G C27U U54A U78A the self-cleavage was 0.14.
For A5U A13G C38G, the self-cleavage was 0.36.
In the case of A5U A13G G33A U41A U54A, the self-cleavage is reported as 0.35.
A5U A13G G33A U76C A77G showed a self-cleavage of 0.56.
Variant A5U A13G U25C G30A U43G U60C G70C has a self-cleavage of 0.07.
Variant A5U A13G U31A U72C has a self-cleavage of 0.82.
Work on A5U A13G U41C U48C A77G yielded a self-cleavage of 0.21.
In the case of A5U A13G U51A, the self-cleavage is reported as 0.85.
For A5U A13G U58A, the self-cleavage was 0.58.
A5U A13G U60A gave a self-cleavage of 0.19.
Variant A5U A13U A15C A56G has a self-cleavage of 1.08.
With A5U A13U A15G A21G A35U A56U the self-cleavage was 0.12.
In the case of A5U A13U A15G U41C U78C, the self-cleavage is reported as 0.6.
In the case of A5U A13U A18G A20G A28U, the self-cleavage is reported as 0.09.
Variant A5U A13U A18G A21C U80A has a self-cleavage of 0.4.
A5U A13U A18G C29U U41A U67C showed a self-cleavage of 0.1.
A5U A13U A18G U25C A28U A64G gave a self-cleavage of 0.24.
With A5U A13U A18G U54C U76C the self-cleavage was 1.13.
Variant A5U A13U A18U A20U A35G U78C has a self-cleavage of 0.18.
A5U A13U A20G A47U gave a self-cleavage of 0.57.
A5U A13U A21G C27A U74G U78A gave a self-cleavage of 0.18.
A5U A13U A28C showed a self-cleavage of 1.1.
Work on A5U A13U A28C G55A C81U yielded a self-cleavage of 0.48.
In the case of A5U A13U A28G U54C U69A, the self-cleavage is reported as 0.1.
With A5U A13U A35G A64G the self-cleavage was 1.12.
A5U A13U A45G U67A gave a self-cleavage of 0.57.
For A5U A13U A57G, the self-cleavage was 0.75.
For A5U A13U A64C U67C, the self-cleavage was 0.22.
In the case of A5U A13U C23U A47G, the self-cleavage is reported as 0.21.
In the case of A5U A13U G16A A18C U25C U80A, the self-cleavage is reported as 0.08.
With A5U A13U G19A G52U A64U the self-cleavage was 0.1.
For A5U A13U G36U U49C U78C, the self-cleavage was 0.14.
A5U A13U U25C A28G U54A showed a self-cleavage of 0.47.
Variant A5U A13U U25C A64G C71U has a self-cleavage of 0.2.
With A5U A13U U25C A64G U72A the self-cleavage was 0.18.
With A5U A13U U25C U26C A64G the self-cleavage was 0.07.
Variant A5U A13U U26A U60C has a self-cleavage of 0.7.
Variant A5U A13U U26C has a self-cleavage of 0.98.
With A5U A13U U31C A45G U67C U80C the self-cleavage was 0.29.
Variant A5U A13U U41C A45G has a self-cleavage of 1.16.
Work on A5U A13U U41C G52U yielded a self-cleavage of 1.2.
Variant A5U A13U U43A A47U U51C U60C A64G has a self-cleavage of 0.05.
In the case of A5U A13U U48C A64G U80C, the self-cleavage is reported as 0.94.
A5U A13U U51A A64G showed a self-cleavage of 1.25.
In the case of A5U A13U U58C U80C, the self-cleavage is reported as 0.76.
Variant A5U A13U U67C has a self-cleavage of 0.27.
Variant A5U A13U U74C has a self-cleavage of 1.24.
In the case of A5U A13U U80C, the self-cleavage is reported as 1.21.
With A5U A15C U26C U49C the self-cleavage was 0.1.
In the case of A5U A15C U58C A65U, the self-cleavage is reported as 0.14.
For A5U A15G A20G U26A, the self-cleavage was 0.34.
A5U A15G A20G U41A A47G A77G showed a self-cleavage of 0.07.
With A5U A15G C17U U67A the self-cleavage was 0.12.
A5U A15G C23G A75G showed a self-cleavage of 0.
Work on A5U A15G C23U A64U U76A yielded a self-cleavage of 0.31.
With A5U A15G C23U G33A A64G U78A the self-cleavage was 0.7.
Work on A5U A15G C27U A64U yielded a self-cleavage of 0.08.
Work on A5U A15G C29U U51C U58C yielded a self-cleavage of 0.19.
For A5U A15G C37U A45C U78C, the self-cleavage was 0.07.
With A5U A15G C37U U58C the self-cleavage was 0.23.
A5U A15G C37U U60G U72C U78C showed a self-cleavage of 0.38.
Work on A5U A15G G22A U49A A56U U58C A64G yielded a self-cleavage of 0.05.
A5U A15G G30A U41A A64G U72A gave a self-cleavage of 0.09.
A5U A15G U25A U49C A64G showed a self-cleavage of 0.41.
In the case of A5U A15G U25C, the self-cleavage is reported as 0.57.
With A5U A15G U25C A28U U41C A64C the self-cleavage was 0.15.
Variant A5U A15G U25C U41A A47G U48C U69C has a self-cleavage of 0.
In the case of A5U A15G U26A C39U U72C, the self-cleavage is reported as 0.93.
Variant A5U A15G U26A U43C A64G U76C C79G has a self-cleavage of 0.15.
For A5U A15G U26G U78C, the self-cleavage was 0.15.
For A5U A15G U41C G52A U74G, the self-cleavage was 1.05.
With A5U A15G U41C U43C the self-cleavage was 0.31.
A5U A15G U43A A47G U74C gave a self-cleavage of 1.12.
In the case of A5U A15G U43C G52A U69C U78C, the self-cleavage is reported as 0.19.
Variant A5U A15G U48C C62U has a self-cleavage of 0.21.
In the case of A5U A15G U67C, the self-cleavage is reported as 0.26.
A5U A15U A20G U25G A45U U67C gave a self-cleavage of 0.08.
Work on A5U A15U A20G U25G U76A U78C yielded a self-cleavage of 0.57.
Variant A5U A15U A20U C40A A56U A64G U66C has a self-cleavage of 0.2.
Work on A5U A15U A20U U43A A57G yielded a self-cleavage of 0.11.
With A5U A15U A21G U26C U72C U76C C81U the self-cleavage was 0.18.
Work on A5U A15U A21U U66C yielded a self-cleavage of 0.13.
Variant A5U A15U A28U U49C G53U A57U A75U has a self-cleavage of 0.11.
With A5U A15U A35U U41C U43C the self-cleavage was 0.13.
Variant A5U A15U C23U U41C A45G has a self-cleavage of 0.09.
Work on A5U A15U C29A C59G U72C yielded a self-cleavage of 0.14.
Variant A5U A15U U25A A45U U72A has a self-cleavage of 0.16.
Work on A5U A15U U41C U54A U72G yielded a self-cleavage of 1.07.
A5U A15U U43A U60A U69A gave a self-cleavage of 0.34.
